Experimental data: the antibiotic and cytotoxicity screens of Wong et al. (2023)
The list shows a part of the results.

The compounds below were run on S. aureus RN4220 (assay: growth inhibition call (relative growth <= 0.2)). Details: 50 µM.

Growth inhibition call, inactive:
CC(C)c1ccccc1OC[C@@H](O)CN, C[C@H](CO)N1C[C@H](C)[C@@H](CN(C)C(=O)Nc2ccc(C(F)(F)F)cc2)OCCCC[C@H](C)Oc2ccc(NC(=O)c3ccncc3)cc2C1=O, C[C@H](CO)N1C[C@H](C)[C@H](CN(C)C(=O)Nc2ccc3c(c2)OCO3)OCCCC[C@H](C)Oc2ccc(NC(=O)Nc3ccc(C(F)(F)F)cc3)cc2C1=O, C[C@@H]1CN([C@@H](C)CO)C(=O)CCCn2nncc2CO[C@H]1CN(C)C(=O)Nc1cccc2ccccc12, CC(CS)C(=O)N1CCCC1C(=O)O (configuration not stated), CCN1C(=O)S/C(=C\C(=O)O)C1=O, COc1ccc(NC(=O)Nc2ccc3c(c2)C(=O)N([C@@H](C)CO)C[C@H](C)[C@@H](CN(C)Cc2ccc(Cl)c(Cl)c2)OCCCC[C@@H](C)O3)cc1, Cc1noc(N)c1C(=O)O, C[C@H](CO)N1C[C@H](C)[C@@H](CN(C)S(=O)(=O)c2cn(C)cn2)OCCCC[C@H](C)Oc2ccc(NS(=O)(=O)c3cccs3)cc2C1=O, CC(=O)Nc1ccc(S(=O)(=O)Nc2ccc([N+](=O)[O-])cc2)cc1, C[C@H](O)C#Cc1cnc2c(c1)C(=O)N([C@H](C)CO)C[C@H](C)[C@H](CN(C)Cc1cncnc1)O2, O=C(O)C[C@H]1Nc2ccccc2NC1=O, COCCN1CCC(CN)CC1, C[C@H]1CN([C@@H](C)CO)C(=O)c2cccc(NC(=O)Nc3ccc(C(F)(F)F)cc3)c2O[C@@H]1CN(C)C(=O)Nc1ccc(C(F)(F)F)cc1, CC1(C)OC2CC(=O)OCC23C1CC(=O)C1(C)C3CCC2(C)C(c3ccoc3)OC(=O)C3OC321 (configuration not stated), C[C@@H]1CCCCO[C@@H](CN(C)Cc2ccc3c(c2)OCO3)[C@@H](C)CN([C@H](C)CO)C(=O)c2cc(NC(=O)Cc3ccccc3)ccc2O1, NCC[C@H]1CC[C@H](NC(=O)NC2CCCCC2)[C@@H](CO)O1, O=C(C[C@H]1C[C@H]2c3cc(NS(=O)(=O)c4ccc(F)cc4)ccc3O[C@H]2[C@@H](CO)O1)NCCN1CCCCC1, COc1ccc(S(=O)(=O)Nc2cccc3c2O[C@H](CN(C)C(=O)NC(C)C)[C@@H](C)CN([C@@H](C)CO)C3=O)cc1, CC(C)CC#Cc1cnc2c(c1)C(=O)N([C@@H](C)CO)C[C@@H](C)[C@@H](CN(C)S(=O)(=O)c1ccccc1)O2, COc1ccc2c3c(n(c2c1)C)[C@H](CO)N(Cc1ccccc1)C[C@]13CCN(CC1)C(=O)c1ccccc1F, C[C@H]1CN([C@@H](C)CO)C(=O)c2cc(NC(=O)Nc3cccc4ccccc34)ccc2O[C@@H]1CN(C)C(=O)Nc1ccc(C(F)(F)F)cc1, O=C(C[C@H]1C=C[C@H](NC(=O)c2cccc(F)c2)[C@H](CO)O1)NCCN1CCCC1, COCC#Cc1ccc2c(c1)O[C@@H](CN(C)S(=O)(=O)c1ccc(C)cc1)[C@@H](C)CN([C@H](C)CO)S2(=O)=O, C[C@@H]1CCCCO[C@@H](CN(C)S(=O)(=O)c2ccc(F)cc2)[C@@H](C)CN([C@H](C)CO)C(=O)c2cc(NS(=O)(=O)c3cn(C)cn3)ccc2O1, COc1ccc(S(=O)(=O)N(C)C[C@H]2OCCCC[C@H](C)Oc3ccc(NC(=O)CCC(F)(F)F)cc3C(=O)N([C@@H](C)CO)C[C@H]2C)cc1, N[C@H]1CCCN(C(=O)c2cccs2)C1, C[C@@H]1CN([C@@H](C)CO)C(=O)c2cc(NS(=O)(=O)c3cn(C)cn3)ccc2O[C@@H](C)CCCCO[C@@H]1CN(C)C(=O)Nc1cccc2ccccc12, C[C@@H]1CCCCO[C@@H](CN(C)S(=O)(=O)c2cn(C)cn2)[C@@H](C)CN([C@@H](C)CO)C(=O)c2cc(NS(=O)(=O)c3cccs3)ccc2O1, O=C(C1=C[C@@H](c2ccc(C(F)(F)F)cc2)C[C@@H](OCc2ccc(CO)cc2)O1)N1CCN(Cc2ccccc2)CC1, COc1ccc(NC(=O)Nc2ccc3c(c2)C(=O)N([C@@H](C)CO)C[C@H](C)[C@H](CN(C)C(=O)Nc2ccc(F)cc2)OCCCC[C@@H](C)O3)cc1, COc1ccc(-c2nc(N3CCOCC3)c3sc(CN(C)c4ncc(C(=O)NO)cn4)cc3n2)cn1
